Experimental data as given in PubChem BioAssay AID624418 (National Center for Advancing Translational Sciences (NCATS), 2012).
Hit rate of the full screen: of about 410,000 compounds, about 530 (0.13%) were called active. This list was built around the results that the source calls inconclusive (neither active nor inactive); the mix of calls is not that of the screen. Calls come from the whole dose curve; as a rule, active = well fitted inhibition curve with a large enough effect; inconclusive = small, poorly fitted or top-dose-only effect, or another doubt; inactive = no such curve, though single readings can be large or run the other way. A potency beside an inconclusive call is a rough fit, not a confirmed value.
Potency is the fitted concentration of half-maximal effect.

Assay: qHTS of GLP-1 Receptor Inverse Agonists: Cytotox Screen
Settings: HEK293 cAMP-luciferase reporter cells, luminescence, 24 h; series mostly up to 38.3 µM
Outline: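 Luminescence readout: signal drop marks cytotoxicity. Plated cells grew 12 h at 37 °C, 5% CO2, received 23 nL compound for 24 h, then got luciferase reagent, read after 12 min at RT.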
For CC(C)c1ccc(NC(=S)NCc2ccc3c(c2)OCO3)cc1, the Potency was inconclusive: 15.8 µM [inhibitor, single point].
With COc1ccc(Cl)cc1NC(=O)CN(C)C(=O)c1cc2c(s1)CCCC2 the Potency was inconclusive: 7.94 µM [inhibitor, partial curve].
For Cc1sc2ncnc(N3CCC(C(=O)Nc4ccc(Cl)c(Cl)c4)CC3)c2c1C, the Potency was inconclusive: 6.31 µM [inhibitor, full curve, poor fit].
With CC(C)C[C@@H](CN1CCCC1CN1C(=S)NC[C@@H]1Cc1ccc(O)cc1)N1C[C@H](Cc2ccc(O)cc2)N(CC2CCCCCC2)C1=S (some centres not stated) the Potency was inconclusive: 22.4 µM [inhibitor, single point].
For CCc1c(C)[nH]n(-c2nc(-c3cccc([N+](=O)[O-])c3)cs2)c1=O, the Potency was inconclusive: 14.1 µM [inhibitor, single point].
For COc1ccccc1C1C(C(=O)c2ccco2)=C(O)C(=O)N1c1cc(C)on1 (configuration not stated), the Potency was inconclusive: 28.2 µM [inhibitor, single point].
With COc1ccc(CNC(=O)CCc2c(C)nc3cc(-c4ccc(OC)cc4OC)nn3c2C)cc1 the Potency was “inactive”.
For Cc1ccc(CN2CCC(Oc3cccc(C(=O)N(C)CCN(C)C)c3)CC2)cc1C, the Potency was inconclusive: 20 µM [inhibitor, partial curve, poor fit].
In the case of O=C(NNc1c2ccccc2nc2ccccc12)c1cc2ccccc2cc1O, the Potency is reported as inconclusive: 8.91 µM [inhibitor, partial curve].
For O=Cc1cc(Cl)ccc1OCCN1CCC(Cc2ccccc2)CC1, the Potency was inconclusive: 31.6 µM [inhibitor, single point].
For CCOc1ccc(NC(=O)c2nc(S(=O)(=O)Cc3ccccc3F)ncc2Cl)cc1, the Potency was inconclusive: 8.91 µM [inhibitor, partial curve].
In the case of N#CC(c1cccc(C(F)(F)F)c1)(c1ncc(C(F)(F)F)cc1Cl)N1CCOCC1 (configuration not stated), the Potency is reported as “inactive”.
With CC(=O)C1=C(O)C(=O)N(c2ccc(Br)cn2)C1c1ccc(F)cc1 (configuration not stated) the Potency was inconclusive: 11.2 µM [inhibitor, single point].
With O=S(=O)(Nc1ccc2ccccc2c1)c1ccccc1 the Potency was “inactive”.
In the case of COc1ccc(CNC(=O)c2c(O)c3cccc4c3n(c2=O)CCC4)cc1, the Potency is reported as inconclusive: 28.2 µM [inhibitor, single point].
For NC(Cc1ccc(Cl)cc1)c1csc(Nc2ccc(C(F)(F)F)cn2)n1 (configuration not stated), the Potency was inconclusive: 28.2 µM [inhibitor, single point].
For COc1ccc(C(=O)NC2CCN(S(=O)(=O)Cc3ccccc3)CC2)c(OC)c1, the Potency was inconclusive: 11.2 µM [inhibitor, partial curve, poor fit].
